Laboratory results from the supplement of paper PMC3334620.
The full ranking holds about 33,000 sequences; the median of “E-score (-0.5 to 0.5)” is about -0.021, and the highest 2% start at about 0.32. The list shows a part of the results.

The sequences below were run against T1, Zap1 (UniProt P47043) (assay: PBM E-score (8-mer binding enrichment) (E-score (-0.5 to 0.5)); higher = stronger / more preferred TF binding; most listed sequences are background and not binding sites). Conditions: protein concentration: 200 nM; construct: GST-full length.
T1 sequence: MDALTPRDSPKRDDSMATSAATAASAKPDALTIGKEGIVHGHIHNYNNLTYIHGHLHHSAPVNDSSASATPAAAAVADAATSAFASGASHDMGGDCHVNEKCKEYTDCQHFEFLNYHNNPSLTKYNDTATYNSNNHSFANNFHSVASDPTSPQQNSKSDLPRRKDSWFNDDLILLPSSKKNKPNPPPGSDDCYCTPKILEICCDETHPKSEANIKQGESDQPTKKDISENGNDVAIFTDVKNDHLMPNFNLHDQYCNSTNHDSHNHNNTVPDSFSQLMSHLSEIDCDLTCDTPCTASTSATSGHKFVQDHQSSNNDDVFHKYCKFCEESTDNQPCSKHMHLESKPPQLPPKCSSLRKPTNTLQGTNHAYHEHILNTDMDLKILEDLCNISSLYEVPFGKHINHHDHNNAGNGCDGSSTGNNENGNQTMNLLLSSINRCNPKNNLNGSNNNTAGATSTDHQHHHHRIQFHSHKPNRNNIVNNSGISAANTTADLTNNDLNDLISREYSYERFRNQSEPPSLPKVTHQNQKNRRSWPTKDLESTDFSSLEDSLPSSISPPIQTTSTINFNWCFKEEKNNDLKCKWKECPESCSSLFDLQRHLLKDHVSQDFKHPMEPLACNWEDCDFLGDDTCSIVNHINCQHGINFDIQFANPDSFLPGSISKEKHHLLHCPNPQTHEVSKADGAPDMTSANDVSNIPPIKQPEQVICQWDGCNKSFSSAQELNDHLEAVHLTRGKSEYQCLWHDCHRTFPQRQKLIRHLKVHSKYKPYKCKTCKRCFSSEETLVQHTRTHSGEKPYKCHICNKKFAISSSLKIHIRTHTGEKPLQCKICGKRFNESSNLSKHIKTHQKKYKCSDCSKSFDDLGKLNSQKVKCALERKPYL
Summary of the method: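 Universal all-10-mer Agilent arrays, double-stranded by primer extension on fresh or once-stripped slides, were probed with about 100-200 nM GST-tagged yeast transcription factors made by PURExpress. Fluorescent anti-GST detected bound protein, and masliner normalised the scans. E-scores from the Universal PBM Analysis Suite were given to each ungapped eight-base word pooled with its reverse complement.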

Sequence	PBM E-score
ACGGGTCC	0.235
TTCTAGAA	0.117
ACAACTGG	0.0472
ATAAGACG	-0.141
TATCCTGA	0.0914
ACCGCGCG	0.252
GATATCCA	0.0606
ATCAAAAA	0.114
CGTGACTC	-0.224
CGTCACAC	-0.237
CAGCAGGG	0.0778
CCCTCCAC	0.0534
AACATTAG	-0.0851
TACAAAAA	0.224
CAGACGGC	-0.198
GCACAGGC	-0.26
CGGGCCGC	-0.0922
AGCAGGCG	-0.133
GACGTTGA	-0.148
CCCCGACA	0.00221
AATTCCGT	-0.0101
CCTCACGC	-0.0248
ACGTACCT	-0.126
TGAGCACA	-0.186
CAATTCAC	0.0154

Sequence	PBM E-score
ACGCATGA	-0.231
CGGTGCAA	0.0851
TGCCGCAA	0.135
ACCAAGTC	0.0417
CTCACCAG	0.0211
TATGAGAA	0.00136
AGGAACAT	0.00486
CTCAGCTA	-0.00828
AGAAACTA	-0.0549
GATCAATA	0.0255
CGTCCACG	-0.181
ATAATTCG	0.0985
CAAGTAGC	-0.129
CGGGCTAC	-0.076
AGCTTTTA	-0.171
CTAACTGA	0.036
GCGTGGAC	-0.142
CGTGTCTA	-0.167
ACCATGGA	-0.0928
TGTACTAA	0.0782
GCGACGCA	-0.0439
ACGCGAAC	0.0863
CGAGATAC	0.112
GAAATACA	0.116
GTGGTCAA	0.201

Sequence	PBM E-score
AAGAAGAG	-0.0898
AGTCCACC	-0.0123
AGTGGGCA	-0.0621
CTCTGGGA	-0.169
AGGGCCGC	-0.171
ACTTTCGC	-0.127
AACCAGGT	0.201
GAAGTTCA	-0.105
AACCGCGC	0.24
CGATGCGA	-0.0439
CTAGCTAG	0.0873
GAAACAAA	0.13
AGGTGGAG	-0.216
AGACGACC	0.124
AAAGAAAG	0.0165
AATTCTCA	-0.0866
GCTAGTCC	-0.307
AGCGACCT	-0.0823
AATAGCAT	-0.0685
AGCTCTGA	-0.211
ATTTCTCG	0.176
ATCGTGGC	-0.145
GGGGATTA	-0.017
TGCAAAAA	0.0645
CCGGTTGA	-0.0219

Sequence	PBM E-score
GGCTGATA	-0.158
AGGAGCGC	-0.151
ACGAGCGG	-0.152
GTACGGAC	0.0497
GGCTGCCC	-0.0432
GAATTACC	0.167
GCGCCAGC	-0.267
AAATGGAT	-0.134
ACAGGGGG	-0.225
CAACCAGC	-0.0722
ATCCCGGA	0.0882
CGAGTATC	-0.115
CGTTTCAG	0.0527
AGCATGAG	0.00126
CATTTACC	0.0957
ACGTACCC	0.0365
CACAGTCA	-0.14
AATATGTG	0.0468
CCTTATAA	0.194
CGTCAAAG	-0.0547
TCAGCGGA	-0.0896
CATTCATC	-0.0992
CGAAAACG	0.0386
GTGTGGGA	-0.218
CGGATGGA	-0.0655

Sequence	PBM E-score
GCCTTATA	-0.00564
AATGATCT	-0.0272
CAGGCATC	-0.239
CCAAAAGC	-0.0282
AGCATACC	0.0696
AGGATTAT	0.0182
ACAACTCG	0.0898
ATCGAACC	-0.0318
ACAGTACC	0.219
GTCTGACA	-0.172
ACGCGTCA	0.0028
ACCCAGGG	0.0854
TAACATCA	0.0842
GAATCCGC	-0.227
TAGGACGA	-0.113
CCGACCGC	-0.147
AGACCGTG	0.149
ACGTGAGC	-0.116
GTCTTGCA	-0.05
GCATCACA	-0.121
AGCTCGCC	-0.186
GCATCGAA	-0.205
AATCTACT	0.118
CTGCGGGA	-0.242
ATTCGTGG	0.0814

Sequence	PBM E-score
GCCTACAC	0.0348
CGAAACAG	-0.0571
TGCGTGAA	0.0192
GCTACCAC	0.107
CAGCTGTC	0.0518
AGGTGCAT	-0.0526
AACACCGA	0.053
AAGGGGTA	0.334
AGACATGC	-0.215
AACTCTCC	-0.175
CGACTACG	-0.135
CTGATACA	-0.0472
CGCAGATC	-0.115
AAACTCAT	0.00451
AGCCACAC	-0.00197
TAAACTCA	0.00603
CGGCGCCG	-0.00397
CGAGTCAA	-0.118
CTAGACTC	-0.231
ATGCATGA	-0.0209
AAGCCTAA	0.0918
ATACCGTC	0.142
CAATTGTG	0.0921
CATGAGCA	-0.148
AAGTCTCC	-0.348

Sequence	PBM E-score
AAGTCATT	-0.224
CAATGAGC	-0.126
TATAAAAA	0.312
AGAGGTAG	0.141
CGGCGTCC	-0.0162
AGTCGCCC	-0.181
ACCGCTAC	0.161
CGAGCCCA	-0.0447
CTCGAGAA	0.1
AGTAGTTA	0.11
GTAAAACA	0.0857
AGTCGGAT	-0.141
CGCTATGA	-0.0837
ATGCTAGG	-0.159
GCTGGTAA	-0.114
CGGCATCA	-0.166
CGTAATGA	-0.0487
ATAAGGAT	0.137
ACAGCTTA	-0.0516
CTTGAAGA	-0.0672
ACTATACA	-0.0207
CGAGGGTA	0.371
